This passage reports TetR repression strength results from a collection of fitness landscapes (doi:10.1038/s41467-024-54723-y).

Over roughly 18,000 sequences, “TetR repression strength (sort-seq, GFP reporter)” has its median near 0.23; the highest 2% begin near 0.68. The list shows a part of the results.

This assay addresses TetR (class B, Tn10) (UniProt P04483). Briefly: TetR repression strength (sort-seq, GFP reporter) (relative to tetO2 = 1); higher = stronger repression. The settings on record: E. coli. A digest of the protocol: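 E. coli SIG10-MAX carried a low-copy plasmid library with eight randomized operator positions between a constitutive promoter and sfGFP, with TetR constitutively expressed. Cells grew 5 h at 37 °C in LB with 50 µg/mL chloramphenicol, then 10^6 cells were FACS-sorted into 13 fluorescence bins, each Illumina-sequenced. Repression strength is the top bin index plus one minus the read-weighted mean bin, divided by the wild-type operator value. Three independent transformations; variants with ≥30 reads in all replicates and CV ≤0.5 were averaged.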
Sequence of UniProt P04483 (P04483 whole entry): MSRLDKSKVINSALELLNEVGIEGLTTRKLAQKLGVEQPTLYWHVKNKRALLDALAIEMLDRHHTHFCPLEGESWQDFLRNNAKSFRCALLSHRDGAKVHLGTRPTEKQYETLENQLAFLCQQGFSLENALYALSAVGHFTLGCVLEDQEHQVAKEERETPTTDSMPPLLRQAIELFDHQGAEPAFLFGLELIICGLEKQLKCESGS
As to TCCCGTGGAGTCGTGGAGA, the TetR repression strength was 0.209. With TCCCGGTCAGTCTGCGAGA the figure was 0.194; with TCCCGGGGAGTGTATGAGA, 0.575. With TCCCGGACAGTGTCTGAGA the figure was 0.262; with TCCCCGTTAGTGCCGGAGA, 0.08; with TCCCGTTGAGTCTGTGAGA, 0.176. For TCCCGGGGAGTCTAGGAGA, the TetR repression strength turned out to be 0.156. As to TCCCTTCTAGTTGTTGAGA, the TetR repression strength worked out at 0.216. Then TCCCAGGTAGTGTGAGAGA, with 0.0877; and TCCCACGGAGTTCCAGAGA, with 0.164. Then TCCCTTGGAGTTAAGGAGA, with 0.123; and TCCCACTCAGTCGGCGAGA, with 0.359; and TCCCGTGAAGTATTCGAGA, with 0.315. In the case of TCCCCGCAAGTAAGAGAGA, the TetR repression strength came out at 0.391. With TCCCCATCAGTATTAGAGA the figure was 0.344.

For TCCCGCTCAGTTCCGGAGA, the TetR repression strength was 0.207. Then TCCCTGTCAGTTTCTGAGA, with 0.518. Then TCCCGCGGAGTACTGGAGA, with 0.26; and TCCCATACAGTATTTGAGA, with 0.302; and TCCCGGGTAGTGTTCGAGA, with 0.16. For the sequence TCCCTTCGAGTTAAGGAGA, the TetR repression strength worked out at 0.186. On to TCCCGCGCAGTTGGGGAGA, for which the TetR repression strength is 0.518. Then TCCCCACGAGTACTAGAGA, with 0.326. Then TCCCATTTAGTCAGTGAGA, with 0.108; and TCCCTTTCAGTCTGTGAGA, with 0.336. Consider TCCCCAAGAGTTAAGGAGA, for which the TetR repression strength is 0.2. Then TCCCGTTCAGTACGCGAGA, with 0.912; and TCCCGGGAAGTGCGGGAGA, with 0.32; and TCCCACTAAGTTATAGAGA, with 0.672. With TCCCGGTCAGTAGCGGAGA the figure was 0.0495; with TCCCGGGGAGTTAACGAGA, 0.428; with TCCCGTTTAGTCGATGAGA, 0.124. TCCCCCTAAGTTTACGAGA yielded a TetR repression strength of 0.42. TCCCTCCAAGTATCTGAGA displayed a TetR repression strength of 0.365.

Sequence TCCCTTGAAGTATACGAGA gave a TetR repression strength of 0.478. With TCCCTGTCAGTTCTTGAGA the figure was 0.238; with TCCCGTGGAGTCCGTGAGA, 0.45. Sequence TCCCCCGGAGTCTGCGAGA yielded a TetR repression strength of 0.198. Take TCCCCCCTAGTACGTGAGA: the TetR repression strength stood at 0.814. With TCCCGGAGAGTTGTCGAGA the figure was 0.168. Then TCCCACCAAGTGTTAGAGA, with 0.17; and TCCCGATGAGTCAGCGAGA, with 0.0296; and TCCCTAAGAGTATTAGAGA, with 0.0953. With TCCCATCGAGTTGTGGAGA the figure was 0.415; with TCCCGCGCAGTTGTTGAGA, 0.196. The sequence TCCCCTCTAGTTTGGGAGA displayed a TetR repression strength of 0.415. With TCCCGTATAGTTACTGAGA the figure was 0; with TCCCAGCAAGTGATAGAGA, 0.167; with TCCCATTGAGTCGGAGAGA, 0.13. With TCCCAAATAGTAATCGAGA the figure was 0.221; with TCCCCCATAGTGGACGAGA, 0.177; with TCCCTTGCAGTTCGAGAGA, 0.218.

Sequence TCCCAAGGAGTGCCTGAGA gave a TetR repression strength of 0.474. Then TCCCGGTAAGTTTTGGAGA, with 0.498; and TCCCTTAAAGTAACAGAGA, with 0.143. Then TCCCATCTAGTAGTCGAGA, with 0.319. Then TCCCTTGTAGTGCACGAGA, with 0.0765; and TCCCGCCTAGTCCCAGAGA, with 0.489.

For the sequence TCCCGCTGAGTTGTAGAGA, the TetR repression strength turned out to be 0.253.

In the case of TCCCAGTGAGTACGAGAGA, the TetR repression strength turned out to be 0.471. Turning to TCCCAATTAGTGCGTGAGA, the TetR repression strength came out at 0.221. With TCCCGAACAGTGTGGGAGA the figure was 0.178; with TCCCGAGCAGTGTGTGAGA, 0.222. Turning to TCCCGGGCAGTTGAGGAGA, the TetR repression strength was found to be 0.289.

As for TCCCTCGAAGTTTATGAGA, the TetR repression strength worked out at 0.191.

Take TCCCAAAAAGTAGGTGAGA: the TetR repression strength turned out to be 0.207. With TCCCCCATAGTCCTCGAGA the figure was 0.412. Then TCCCCTTGAGTGTGTGAGA, with 0.178; and TCCCTTACAGTCCACGAGA, with 0.808.

For the sequence TCCCAGTTAGTACGTGAGA, the TetR repression strength amounted to 0.264. With TCCCGTTTAGTGCCAGAGA the figure was 0.0562; with TCCCTATAAGTCAGAGAGA, 0.335. Then TCCCTCAAAGTGACTGAGA, with 0.185. With TCCCATTGAGTTACAGAGA the figure was 0.118; with TCCCGGTGAGTCTAGGAGA, 0.164; with TCCCGAAGAGTTCCTGAGA, 0.501. In turn, TCCCTGTTAGTTGTCGAGA registered a TetR repression strength of 0.341. In turn, TCCCGAGAAGTGGGCGAGA registered a TetR repression strength of 0.263. With TCCCTCGTAGTGTTTGAGA the figure was 0.362; with TCCCGGGAAGTGTGGGAGA, 0.184; with TCCCCGCCAGTTATGGAGA, 0.191. With TCCCGTTCAGTGATAGAGA the figure was 0.819; with TCCCTGCTAGTGTGGGAGA, 0.23. With TCCCCATCAGTGATGGAGA the figure was 0.399.

As to TCCCATGAAGTTGCGGAGA, the TetR repression strength came to 0.104. For TCCCTGGGAGTCTGTGAGA, the TetR repression strength is 0.158.

The sequence TCCCGGCCAGTTCGTGAGA came in with a TetR repression strength of 0.197. With TCCCTTGGAGTCATGGAGA the figure was 0.307.

The sequence TCCCTATCAGTGGGGGAGA gave a TetR repression strength of 0.378. With TCCCCGTGAGTCACGGAGA the figure was 0.232. As to TCCCACCCAGTGGTCGAGA, the TetR repression strength turned out to be 0.255. The sequence TCCCCTCCAGTGAGGGAGA gave a TetR repression strength of 0.351.

TCCCTGAAAGTGGGCGAGA yielded a TetR repression strength of 0.202.

TCCCATCCAGTTATTGAGA returned a TetR repression strength of 0.23. As to TCCCCGGAAGTGAGAGAGA, the TetR repression strength is 0.255. Then TCCCGTTTAGTTATTGAGA, with 0.661; and TCCCTTGCAGTCAGAGAGA, with 0.184; and TCCCAAGTAGTGACGGAGA, with 0.0549. With TCCCTGGGAGTGCGGGAGA the figure was 0.144; with TCCCTGGGAGTATACGAGA, 0.134. With TCCCCGTTAGTCAGAGAGA the figure was 0.49; with TCCCCGCGAGTCATTGAGA, 0.44.
